In article PMC6265451:
No constants are given. Whether binding was seen depends on the method and setting. Some entries that bind do so weakly or less than the wild type.

Chains of the proteins cited; added tags and fusions are not shown.
UniProt P29468: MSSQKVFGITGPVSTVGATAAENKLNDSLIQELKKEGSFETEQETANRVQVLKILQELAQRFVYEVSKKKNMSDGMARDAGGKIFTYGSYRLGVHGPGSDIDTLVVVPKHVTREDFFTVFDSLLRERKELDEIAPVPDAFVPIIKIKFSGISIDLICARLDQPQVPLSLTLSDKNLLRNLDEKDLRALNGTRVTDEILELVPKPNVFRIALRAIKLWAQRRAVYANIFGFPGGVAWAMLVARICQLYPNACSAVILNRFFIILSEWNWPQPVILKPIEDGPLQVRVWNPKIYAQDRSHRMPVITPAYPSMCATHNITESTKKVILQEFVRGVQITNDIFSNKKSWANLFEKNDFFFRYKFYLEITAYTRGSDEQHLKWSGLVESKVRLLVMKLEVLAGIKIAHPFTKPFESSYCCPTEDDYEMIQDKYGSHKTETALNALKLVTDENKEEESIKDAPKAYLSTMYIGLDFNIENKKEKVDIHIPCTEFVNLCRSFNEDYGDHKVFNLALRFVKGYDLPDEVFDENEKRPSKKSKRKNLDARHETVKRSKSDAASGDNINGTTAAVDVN

T1: Mpe1-TAPS (S. cerevisiae) (UniProt P35728)
T1 sequence: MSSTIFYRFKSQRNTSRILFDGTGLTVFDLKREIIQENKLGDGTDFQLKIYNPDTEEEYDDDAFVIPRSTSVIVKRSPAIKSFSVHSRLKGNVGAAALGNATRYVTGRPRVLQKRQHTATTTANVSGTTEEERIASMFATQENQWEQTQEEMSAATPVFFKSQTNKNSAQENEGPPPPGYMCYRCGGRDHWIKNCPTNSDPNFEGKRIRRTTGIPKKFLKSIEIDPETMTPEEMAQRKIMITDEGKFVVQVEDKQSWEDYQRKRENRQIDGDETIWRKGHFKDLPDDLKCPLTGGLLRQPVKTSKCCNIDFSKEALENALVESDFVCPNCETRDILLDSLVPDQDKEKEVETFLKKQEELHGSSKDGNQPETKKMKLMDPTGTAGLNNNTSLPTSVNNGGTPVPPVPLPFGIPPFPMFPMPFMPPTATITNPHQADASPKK

T2: Pta1-TAPS (S. cerevisiae) (UniProt Q01329)
T2 sequence: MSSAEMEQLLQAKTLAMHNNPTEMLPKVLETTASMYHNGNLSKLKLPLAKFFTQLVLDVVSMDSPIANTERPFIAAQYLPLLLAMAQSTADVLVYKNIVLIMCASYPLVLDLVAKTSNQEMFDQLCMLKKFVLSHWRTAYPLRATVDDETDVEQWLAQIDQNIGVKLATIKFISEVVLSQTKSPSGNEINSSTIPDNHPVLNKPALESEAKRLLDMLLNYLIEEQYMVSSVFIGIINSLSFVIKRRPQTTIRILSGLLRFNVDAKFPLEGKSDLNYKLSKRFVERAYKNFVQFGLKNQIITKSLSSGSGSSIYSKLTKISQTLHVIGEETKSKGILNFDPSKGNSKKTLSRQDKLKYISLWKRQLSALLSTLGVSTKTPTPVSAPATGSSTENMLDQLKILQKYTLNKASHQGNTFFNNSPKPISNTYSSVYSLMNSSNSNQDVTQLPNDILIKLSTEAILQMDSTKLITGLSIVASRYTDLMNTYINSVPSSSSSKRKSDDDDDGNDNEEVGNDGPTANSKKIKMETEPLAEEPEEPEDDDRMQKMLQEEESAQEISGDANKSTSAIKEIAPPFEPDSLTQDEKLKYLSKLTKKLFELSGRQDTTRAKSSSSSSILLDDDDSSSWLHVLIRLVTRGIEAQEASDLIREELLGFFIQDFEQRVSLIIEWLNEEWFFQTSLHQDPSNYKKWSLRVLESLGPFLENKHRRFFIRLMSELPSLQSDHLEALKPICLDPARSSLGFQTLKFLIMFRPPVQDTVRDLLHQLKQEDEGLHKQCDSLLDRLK

T3: Ref2-TAPS (S. cerevisiae) (UniProt P42073)
T3 sequence: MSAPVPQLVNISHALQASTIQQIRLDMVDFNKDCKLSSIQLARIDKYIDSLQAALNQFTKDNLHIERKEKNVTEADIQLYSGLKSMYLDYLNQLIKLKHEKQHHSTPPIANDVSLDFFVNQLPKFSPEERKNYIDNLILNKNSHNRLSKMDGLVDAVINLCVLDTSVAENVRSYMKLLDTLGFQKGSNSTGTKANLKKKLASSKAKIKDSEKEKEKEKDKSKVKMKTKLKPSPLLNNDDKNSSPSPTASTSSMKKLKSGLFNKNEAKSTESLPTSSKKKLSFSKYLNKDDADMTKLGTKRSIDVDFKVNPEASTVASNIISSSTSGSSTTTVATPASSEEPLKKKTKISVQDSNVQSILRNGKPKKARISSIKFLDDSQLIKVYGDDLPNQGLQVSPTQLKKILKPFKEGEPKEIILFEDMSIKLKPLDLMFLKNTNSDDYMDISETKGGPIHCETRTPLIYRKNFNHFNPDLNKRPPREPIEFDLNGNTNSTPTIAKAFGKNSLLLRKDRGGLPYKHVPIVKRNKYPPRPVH

T4: Syc1-TAPS (S. cerevisiae) (UniProt Q08553)
T4 sequence: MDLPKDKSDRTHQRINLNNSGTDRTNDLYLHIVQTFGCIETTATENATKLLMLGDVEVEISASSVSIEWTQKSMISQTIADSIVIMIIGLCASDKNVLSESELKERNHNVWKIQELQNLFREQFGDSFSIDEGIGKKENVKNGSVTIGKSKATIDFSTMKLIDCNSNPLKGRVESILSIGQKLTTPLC

B1: Cft2 (protein, UniProt Q12102 1-859)
chain: MTYKYNCCDDGSGTTVGSVVRFDNVTLLIDPGWNPSKVSYEQCIKYWEKVIPEIDVIILSQPTIECLGAHSLLYYNFTSHFISRIQVYATLPVINLGRVSTIDSYASAGVIGPYDTNKLDLEDIEISFDHIVPLKYSQLVDLRSRYDGLTLLAYNAGVCPGGSIWCISTYSEKLVYAKRWNHTRDNILNAASILDATGKPLSTLMRPSAIITTLDRFGSSQPFKKRSKIFKDTLKKGLSSDGSVIIPVDMSGKFLDLFTQVHELLFESTKINAHTQVPVLILSYARGRTLTYAKSMLEWLSPSLLKTWENRNNTSPFEIGSRIKIIAPNELSKYPGSKICFVSEVGALINEVIIKVGNSEKTTLILTKPSFECASSLDKILEIVEQDERNWKTFPEDGKSFLCDNYISIDTIKEEPLSKEETEAFKVQLKEKKRDRNKKILLVKRESKKLANGNAIIDDTNGERAMRNQDILVENVNGVPPIDHIMGGDEDDDEEEENDNLLNLLKDNSEKSAAKKNTEVPVDIIIQPSAASKHKMFPFNPAKIKKDDYGTVVDFTMFLPDDSDNVNQNSRKRPLKDGAKTTSPVNEEDNKNEEEDGYNMSDPISKRSKHRASRYSGFSGTGEAENFDNLDYLKIDKTLSKRTISTVNVQLKCSVVILNLQSLVDQRSASIIWPSLKSRKIVLSAPKQIQNEEITAKLIKKNIEVVNMPLNKIVEFSTTIKTLDISIDSNLDNLLKWQRISDSYTVATVVGRLVKESLPQVNNHQKTASRSKLVLKPLHGSSRSHKTGALSIGDVRLAQLKKLLTEKNYIAEFKGEGTLVINEKVAVRKINDAETIIDGTPSELFDTVKKLVTDMLAKI
B2: Ysh1 (enzyme, UniProt Q06224 1-779)
chain: MERTNTTTFKFFSLGGSNEVGRSCHILQYKGKTVMLDAGIHPAYQGLASLPFYDEFDLSKVDILLISHFHLDHAASLPYVMQRTNFQGRVFMTHPTKAIYRWLLRDFVRVTSIGSSSSSMGTKDEGLFSDEDLVDSFDKIETVDYHSTVDVNGIKFTAFHAGHVLGAAMFQIEIAGLRVLFTGDYSREVDRHLNSAEVPPLSSNVLIVESTFGTATHEPRLNRERKLTQLIHSTVMRGGRVLLPVFALGRAQEIMLILDEYWSQHADELGGGQVPIFYASNLAKKCMSVFQTYVNMMNDDIRKKFRDSQTNPFIFKNISYLRNLEDFQDFGPSVMLASPGMLQSGLSRDLLERWCPEDKNLVLITGYSIEGTMAKFIMLEPDTIPSINNPEITIPRRCQVEEISFAAHVDFQENLEFIEKISAPNIILVHGEANPMGRLKSALLSNFASLKGTDNEVHVFNPRNCVEVDLEFQGVKVAKAVGNIVNEIYKEENVEIKEEIAAKIEPIKEENEDNLDSQAEKGLVDEEEHKDIVVSGILVSDDKNFELDFLSLSDLREHHPDLSTTILRERQSVRVNCKKELIYWHILQMFGEAEVLQDDDRVTNQEPKVKEESKDNLTNTGKLILQIMGDIKLTIVNTLAVVEWTQDLMNDTVADSIIAILMNVDSAPASVKLSSHSCDDHDHNNVQSNAQGKIDEVERVKQISRLFKEQFGDCFTLFLNKDEYASNKEETITGVVTIGKSTAKIDFNNMKILECNSNPLKGRVESLLNIGGNLVTPLC
B3: Pfs2 (protein, UniProt P42841 1-465)
chain: MDGHNQNQYQNQNQIQQSQQPPLKKYVTQRRSVDVSSPYINLYYNRRHGLPNLVVEPETSYTIDIMPPNAYRGRDRVINLPSKFTHLSSNKVKHVIPAIQWTPEGRRLVVATYSGEFSLWNASSFTFETLMQAHDSAVTTMKYSHDSDWMISGDADGMIKIWQPNFSMVKEIDAAHTESIRDMAFSSNDSKFVTCSDDNILKIWNFSNGKQERVLSGHHWDVKSCDWHPEMGLIASASKDNLVKLWDPRSGNCISSILKFKHTVLKTRFQPTKGNLLMAISKDKSCRVFDIRYSMKELMCVRDETDYMTLEWHPINESMFTLACYDGSLKHFDLLQNLNEPILTIPYAHDKCITSLSYNPVGHIFATAAKDRTIRFWTRARPIDPNAYDDPTYNNKKINGWFFGINNDINAVREKSEFGAAPPPPATLEPHALPNMNGFINKKPRQEIPGIDSNIKSSTLPGLSI

Tests used:
[1] = target: T1, Mpe1-TAPS (S. cerevisiae); test: SEC; TAPS affinity purification from tagged yeast strain, then Superose 6 PC 3.2/30 in 20 mM HEPES pH 7.9, 150 mM KCl, 3 mM DTT, 0.5 mM Mg(OAc)2, 0.5 mM MnCl2; fractions on Coomassie-stained SDS-PAGE
[2] = target: T2, Pta1-TAPS (S. cerevisiae); test: as above
[3] = target: Pap1-TAPS (S. cerevisiae) (UniProt P29468); test: as above
[4] = target: T3, Ref2-TAPS (S. cerevisiae); test: as above
[5] = target: T4, Syc1-TAPS (S. cerevisiae); test: as above
[6] = target: T2, Pta1-TAPS (S. cerevisiae); test: anion exchange chromatography; TAPS affinity purification from tagged yeast strain (Ref2-tagged; Pta1-tagged with SYC1 deleted), then Mono Q 5/50 GL in 20 mM HEPES pH 7.9, 150 mM KCl, 3 mM DTT, 0.5 mM Mg(OAc)2; APT eluted at 260 mM KCl and CPF at 400 mM KCl
[7] = target: T3, Ref2-TAPS (S. cerevisiae); test: as above

Row | Binder | binding [1] | binding [2] | binding [3] | binding [4] | binding [5] | binding [6] | binding [7]
1 | B1 | binds | binds | binds | binds | no binding | binds | binds
2 | B2 | binds | binds | binds | binds | no binding | binds | binds
3 | B3 | binds | binds | binds | binds | no binding | binds | binds
